Drawing on the supplement of paper PMC4723716, this text covers viability index for 44 compounds.

This assay relates to Plasmodium falciparum NF54 stage V gametocytes. The experiment in a line: viability index relative to DMSO control (fraction); higher = less gametocyte killing. The settings on record: 2.5 µM, incubation time: 72 h. In short, it runs like this:
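Compound at 2.5 µM was incubated for 72 hr at 37°C under low oxygen with P. falciparum NF54 stage V gametocytes (0.75% gametocytemia, 1.25% hematocrit, 10 µl, serum-free screening medium) in 1,536-well plates. Staining used 3 µl of 2.5 µM MitoTracker Red CMXRos plus 0.13% saponin for one to two hours, and red particles of 20–70 µm2 were counted in one imaged field per well. Each viability index is that count relative to the plate mean of solvent-only wells.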

Setting [1] is: library set: Broad Institute DOS.

Each structure is given as a SMILES string. ± gives the uncertainty stated by the source. Whole data set: some 9,900 compounds, median “viability index relative to DMSO control” near 1, cut for the lowest 2% near 0.85. Some of the results follow.

Compound `COc1ccc2c3c([C@@H](CO)N(CC4CC4)C[C@]33CN(C3)C(=O)c3ccc4OCOc4c3)n(C)c2c1` returned a viability index under setting [1] of 1.02 ± 0.016.

As to `CC(C)CC#Cc1ccc([C@H]2[C@H]3CN(C(=O)Nc4ccccc4)CCCCN3[C@H]2CO)cc1`, the viability index under setting [1] came to 0.99 ± 0.061. The compound `COc1ccc2c3c([C@H](CO)NC[C@]33CN(C3)C(=O)CC3CC3)n(C)c2c1` returned a viability index under setting [1] of 1.09 ± 0.054. Compound `CCCC#Cc1ccc([C@H]2[C@H](CO)N3C(=O)CN(S(=O)(=O)c4ccccc4C)C[C@@H]23)cc1` returned a viability index under setting [1] of 1 ± 0.085.

For `O=C(C1CCOCC1)N1CC(=O)N2[C@@H](CO)[C@@H](c3ccc(C#CCc4ccccc4)cc3)[C@@H]2C1`, the viability index under setting [1] is 1.09 ± 0.065. Under setting [1], `CO[C@@H]1CC[C@@H]2CCOc3ccc(C#N)cc3C(=O)N(C)[C@H](C)C(=O)N(C)C[C@@H]1O2` displayed a viability index of 1.07 ± 0.014. The same measure, in the same setting: under `O=C(Cc1cccnc1)N1CC(=O)N2[C@H](C1)[C@H](c1ccc(/C=C/c3ccccc3)cc1)[C@@H]2CO` stands 0.926 ± 0.038; under `CCc1cnc(N2[C@H](C#N)[C@H](c3ccc(-c4cccc(F)c4)cc3)[C@H]2CO)s1`, 1.12 ± 0.018; under `C[C@@H]1CCCCO[C@H](CN(C)C(=O)Nc2ccc3c(c2)OCO3)[C@H](C)CN([C@@H](C)CO)C(=O)c2cc(NS(=O)(=O)c3ccc(F)cc3)ccc2O1`, 1.06 ± 0.15. Still for that read-out and setting: the same measure for `COC(=O)C[C@@H]1CC[C@H]2[C@@H](COc3ccc(NC(=O)c4ccc(C(F)(F)F)cc4)cc3C(=O)N2C)O1`: 1.13 ± 0.08; for `CC(C)[C@H]1COCc2cnnn2CCC[C@H](C)C(=O)N1`: 1.08 ± 0.11; for `O=C1CCC(=O)N[C@@H](c2ccc(F)cc2)C/C=C\C[C@H](c2ccc(F)cc2)N1`: 1.02 ± 0.011. As to `COc1ccc2c3c([C@H](CO)N(C)C[C@]33CN(CC4CC4)C3)n(C)c2c1`, the viability index under setting [1] was determined as 1.03 ± 0.06. Consider `CN1c2ccc(-c3ccccc3)cc2[C@H]2[C@H](CCN2C(=O)NC2CCCCC2)[C@@H]1CO`, for which the viability index under setting [1] came out at 0.976 ± 0.067. For the compound `COc1ccccc1C(=O)Nc1ccc2c(c1)C(=O)N(C)C[C@H](OC)[C@@H](C)CN(C(C)=O)[C@@H](C)CO2`, the viability index under setting [1] worked out at 1.02 ± 0.13.

Take `O=C([C@@H]1[C@@H](CO)[C@@H]2Cn3c(ccc(C4=CCCCC4)c3=O)[C@H]1N2)N1CCC(Cc2ccccc2)CC1`: under setting [1], the viability index was 0.954 ± 0.053.

Under setting [1], `Cc1cccc(-c2ccc([C@@H]3[C@@H]4CN(C(=O)CN(C)C)C[C@H]3N4)cc2)c1` came in with a viability index of 0.477 ± 0.045. Take `CCNC[C@@H]1[C@@H](c2ccccc2)[C@@H](CO)N1C(=O)Cc1ccccn1`: the viability index under setting [1] is 1.0939 ± 0.0009.

Under setting [1], `C[C@@H](NC(=O)C[C@H]1C=C[C@H](NC(=O)c2cccnc2)[C@H](CO)O1)c1ccccc1` displayed a viability index of 1 ± 0.063. In the case of `COc1ccc2c3c([nH]c2c1)[C@@H](CO)N(C[C@]31CCN(CC1)C(=O)c1ccccc1F)C(=O)Nc1ccc(F)cc1`, the viability index under setting [1] was 0.948 ± 0.015. Consider `Cc1nn(C)cc1NC(=O)C[C@H]1CC[C@@H]2[C@@H](COc3ccc(NC(=O)C4CCOCC4)cc3C(=O)N2C)O1`, for which the viability index under setting [1] was 1.1 ± 0.017. For `C[C@@H]1CN([C@@H](C)CO)C(=O)c2ccccc2-c2ccccc2CO[C@@H]1CN(C)Cc1ccc2c(c1)OCCN2C`, under setting [1], the viability index stood at 1 ± 0.14. Compound `CCc1cnc(N2[C@H](C#N)[C@@H](c3ccccc3C3=CCCCC3)[C@@H]2CO)s1` had a viability index under setting [1] of 1.15 ± 0.013.

On to `C[C@@H]1CN([C@@H](C)CO)C(=O)c2cc(C3=CCCC3)cnc2O[C@H]1CN(C)C(=O)Nc1ccc(C(F)(F)F)cc1`, for which the viability index under setting [1] worked out at 0.972 ± 0.037. `CN(C)C(=O)c1ccc(-c2cccc(-c3nc(C(=O)NCc4ccccc4)cc4c3[C@@H](CCO)N([S@](=O)C(C)(C)C)C4)c2)cc1`: the viability index under setting [1] came to 0.905 ± 0.025. The same measure, in the same setting: the same measure for `Cc1noc(C)c1S(=O)(=O)Nc1ccc2c(c1)C(=O)N([C@@H](C)CO)C[C@H](C)[C@H](CN(C)Cc1ccc(C(=O)O)cc1)OCCCC[C@H](C)O2`: 1.14 ± 0.051; for `C[C@@H]1CN([C@@H](C)CO)C(=O)CCCn2cc(nn2)CO[C@@H]1CN(C)S(=O)(=O)c1cn(C)cn1`: 1.07 ± 0.062. For the compound `CC(=O)N1CC2(C1)[C@H](c1ccccc1)[C@@H](CO)N2Cc1ccccc1`, the viability index under setting [1] turned out to be 1.08 ± 0.047. Compound `Cc1noc(C)c1S(=O)(=O)N(C)C[C@@H]1Oc2c(NC(=O)c3ccc(-c4nccs4)cc3)cccc2C(=O)N([C@@H](C)CO)C[C@@H]1C` returned a viability index under setting [1] of 0.955 ± 0.036. In the case of `C[C@H]1CNC(=O)[C@@H](Cc2ccc(C(F)(F)F)cc2)CCn2nncc2COC1`, the viability index under setting [1] came to 1.03 ± 0.018. Turning to `COc1ccccc1CNC(=O)C[C@@H]1CC[C@H]2[C@@H](COc3ccc(NC(C)=O)cc3C(=O)N2C)O1`, the viability index under setting [1] was determined as 0.974 ± 0.031. Under “library set: Broad Institute Blood Stage”, `C[C@@H]1CN([C@@H](C)CO)C(=O)c2cccc(NC(=O)C3CC3)c2O[C@@H]1CN(C)C(=O)Nc1ccc(C(F)(F)F)cc1` displayed a viability index of 0.594 ± 0.06. For `Cc1noc(C)c1S(=O)(=O)Nc1ccc2c(c1)C(=O)N([C@H](C)CO)C[C@H](C)[C@@H](CN(C)Cc1ccc(C(=O)O)cc1)OCCCC[C@@H](C)O2`, the viability index under setting [1] was 0.909 ± 0.28. As for `CCC(=O)Nc1ccc2c(c1)OC[C@@H](C)N(Cc1ccccc1)C[C@H](C)[C@@H](OC)CN(C)C2=O`, the viability index under setting [1] came to 0.96 ± 0.0082. On the same count and under the same terms, under `COc1cccc(NC(=O)N[C@@H]2C=C[C@@H](CC(=O)NCc3ccncn3)O[C@@H]2CO)c1` stands 1.09 ± 0.068; under `OC[C@H]1[C@@H](c2ccc(C#Cc3ccccc3F)cc2)[C@@H]2CN(CC3CCOCC3)CCCCN12`, 0.9107 ± 0.0029. `COc1ccc(S(=O)(=O)N(C)C[C@@H]2Oc3c(cccc3N(C)C)C(=O)N([C@@H](C)CO)C[C@@H]2C)cc1` yielded a viability index under setting [1] of 1.04 ± 0.083. Compound `C/C=C/c1ccc2n(c1=O)C[C@H]1[C@H](CO)[C@@H](C(=O)NCCc3cn(C)cn3)[C@@H]2N1C(=O)C1CCC1.C/C=C\c1ccc2n(c1=O)C[C@H]1[C@H](CO)[C@@H](C(=O)NCCc3cn(C)cn3)[C@@H]2N1C(=O)C1CCC1` showed a viability index under setting [1] of 1.08 ± 0.032. The compound `O=S(=O)(c1ccc(F)cc1)N1CCCCN2[C@@H](CO)[C@@H](c3ccc(-c4cncnc4)cc3)[C@@H]2C1` gave a viability index under setting [1] of 1.06 ± 0.079. On to `CCCNC(=O)N1[C@@H]2CN(C(=O)c3ccncc3)c3ccccc3[C@@H]2[C@@H]1CO`, for which the viability index under setting [1] turned out to be 1.05 ± 0.054.

`O=C(NCC[C@@H]1CC[C@@H](NC(=O)c2ccccc2F)[C@H](CO)O1)c1cnccn1` gave a viability index under setting [1] of 1.01 ± 0.047. As to `O=C(c1cccnc1)N1CC(=O)N2[C@@H](CO)[C@@H](c3ccc(-c4ccccc4F)cc3)[C@@H]2C1`, the viability index under setting [1] was determined as 1.13 ± 0.032. As to `C[C@H]1CN([C@@H](C)CO)C(=O)c2c(c3ccccc3n2C)-c2ccccc2CO[C@@H]1CN(C)C(=O)[C@H](Cc1ccccc1)N(C)C`, the viability index under setting [1] amounted to 1.02 ± 0.038. For `OC[C@H]1[C@@H](c2ccccc2)C2(CN(Cc3cccnc3)C2)N1Cc1ccncc1`, the viability index under setting [1] was 1.12 ± 0.034.
